# Results taken from paper PMC12040169 (PLOS Biology, 2025).
# The other results are listed elsewhere or left out.
# Test system: T1, C. trachomatis L2/434/Bu expressing GFP (CTL2-GFP)
# T1 construct: L2/434/Bu GFP intracellular growth in HeLa cells
# Parameters: species or system HeLa; C. trachomatis total inclusion area by high-content imaging, normalised to DMSO
# Settings: total inclusion area; 28.5 h, 10 µM; inhibitor
# In short: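 Bulk GFP and resorufin signals were read first. Wells were then fixed, stained with Hoechst and imaged to detect GFP inclusions and host nuclei. MICs followed the previously described calculation.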
row,Compound,% of control remaining
1,COc1ccc(Br)cc1S(=O)(=O)n1ccnc1C [CBK264003],91.1456
2,Cc1cccnc1NC(=O)COc1ccc(Cl)cc1 [CBK262175],70.3994
3,CN1CCN(C(=O)c2[nH]c3ccccc3c2NS(=O)(=O)Cc2ccccc2)CC1 [CBK050046],86.6267
4,Cc1cccc(C)c1OCC(=O)Nc1cccc(Oc2ccc3c(c2)C(=O)N(c2ccccc2)C3=O)c1 [CBK265499],97.2644
5,CCOc1ccc(NC(=O)C2C3C=CC(O3)C2C(=O)O)cc1 (stereo not shown) [CBK261592],95.5728
6,O=C(Nc1ccccc1N1CCN(C(=O)c2ccc(Cl)cc2)CC1)c1ccc(-c2cccc([N+](=O)[O-])c2)o1 [CBK266398],113.228
7,Cc1ccc(CNC(=O)OCCN2CCN(C)CC2)o1 [CBK200205],104.517
8,N#Cc1cccc(C(=O)N2CCCC3(CCN(C(=O)Cc4c[nH]c5ccccc45)C3)C2)c1 (stereo not shown) [CBK131581],93.5065
9,COc1cccc(NC(=O)c2ccc(-c3cc(C(F)(F)F)cc(C(F)(F)F)c3)nc2N(C)C)c1 [CBK106028],79.2908
10,CCc1nc2c(OCc3ccccc3)cccn2c1N(C)C(=O)Nc1ccccc1OC [CBK147890],126.386
11,Cc1ccc(NC(=O)COc2ccccc2)c(NC(=O)c2ccco2)c1 [CBK266809],107.482
12,NCCn1cc(-c2cccc(F)c2)c(C2CCOCC2)n1 [CBK281696],115.837
13,CC1=CC(=O)Nc2ccccc2S1 [CBK028872],149.607
14,Fc1ccc(-c2[nH]c3ncccc3c2CN2CCOCC2)cc1 [CBK285310],101.032
15,COc1cccc(Oc2nccnc2-c2ccc3c(c2)OCO3)c1 [CBK106704],102.024
16,CC/C(=N\C(N)=O)c1ccccc1 [CBK009865],81.7975
17,O=P(O)(CCc1ccccc1)CN1CCOCC1 [CBK262305],112.113
18,Nc1ncc(-c2ccc(OC(F)(F)F)cc2)c2cccnc12 [CBK067594],86.0872
19,CCCC/C=C/c1ccc(Nc2ccc3c(c2)OCCO3)nc1 [CBK037774],112.175
20,Cn1cc(I)c(C(=O)NNC(=S)Nc2ccc(S(N)(=O)=O)cc2)n1 [CBK267066],121.712
21,CC(=O)NC(Cc1c[nH]c2ccccc12)/C(C)=N/O (stereo not shown) [CBK022711],111.199
22,Nc1c(N(CCO)C(=O)C2CCCC2)c(=O)[nH]c(=O)n1Cc1ccccc1 [CBK297490],104.293
23,O=C(NC1CCCCC1)c1ccc(-n2ccnc2)c(-n2cccc2)c1 [CBK285365],105.674
24,O=C(N/N=C/c1cc2c(cc1Br)OCO2)c1ccc(CN2CCOCC2)cc1 [CBK262721],77.3324
25,CC(C)CNC(=O)N1CCN(C2CCN(C)CC2)CC1 [CBK155902],96.2406
26,COC(=O)CCc1ccc(S(=O)(=O)N2CCCN(Cc3cccc(Cl)c3Cl)CC2)cc1 [CBK062988],29.8885

row,Compound,% of control remaining
1,CCNC(=O)CN1CCN(C(C(=O)O)c2c[nH]c3ccc(C)cc23)CC1 (stereo not shown) [CBK286694],78.9781
2,Cc1occc1-c1nnc(SCC(=O)Nc2ccccc2)n1C [CBK270308],103.722
3,CC(NC(=O)c1n[nH]c2c1CCC2)c1cccnc1 (stereo not shown) [CBK281488],99.3049
4,COc1cc(C(=O)Nc2ccc(N3CCN(C)CC3)cc2)ccc1OCc1ccc(Cl)cc1 [CBK266116],60.1138
5,Fc1cc(Br)c(CNCc2ncc[nH]2)c(N2CCCCC2)c1F [CBK304243],2.111
6,CCc1nc2c(OCc3ccccc3)cccn2c1N(Cc1ccc(OC)cc1)C(C)=O [CBK147887],97.3648
7,Cc1nn(C)cc1CNC(=O)C1C2CCC(C2)C1C(=O)O (stereo not shown) [CBK286875],105.34
8,C[C@@H]1C(=O)Nc2ccc(F)cc2N1C(=O)N1CCCC1 [CBK007936],75.0764
9,CCOc1ccc2c(c1)C(=O)c1cc(OCC(=O)O)ccc1-2 [CBK286693],78.5664
10,Nc1ncc(-c2cccs2)nc1-c1ccc(C(=O)O)cc1 [CBK064133],93.4797
11,CCCCNc1nnc(-c2nn(C)cc2Cl)s1 [CBK288021],85.2968
12,Cc1ccc(S(=O)(=O)NC(C)(C)CSc2nnc[nH]2)cc1 [CBK268374],106.833
13,CCOC(=O)C1CC1CN1CCN(S(=O)(=O)c2ccc(OCC)c3ncccc23)CC1 (stereo not shown) [CBK062785],81.4142
14,CN1CCC(C(=O)Nc2cnc(-c3cccc(OC(F)(F)F)c3)c(-c3cccnc3)n2)CC1 [CBK036882],127.703
15,CC(C)Nc1cncc(OCC2CN(C)CCN2C)n1 (stereo not shown) [CBK115602],104.644
16,Nc1nc(C2CC(N)C2)cc(N2CCC(Oc3ccccc3F)CC2)n1 (stereo not shown) [CBK306909],24.2498
17,NC(=O)Nc1ccc2c(c1)ncn2C1CCCCC1 [CBK288176],113.599
18,Cc1ccc(-c2nc(C3CCCN3C(=O)C3CC3C(=O)O)n3ccccc23)cc1 (stereo not shown) [CBK046559],138.535
19,COc1ccc(/C=C(\C)C(=O)Nc2cccnc2N2CCNCC2)cc1OC [CBK034124T],82.5428
20,COc1ccc(-c2cn(-c3ccc(OC)c(OC)c3)nn2)cc1 [CBK113001],73.493
21,CS(=O)(=O)CCOCCNC(=O)c1cc(Br)cnc1Cl [CBK305178],96.764
22,CCn1c(COc2cccc(C)c2)nnc1SCC(=O)c1ccccc1 [CBK267143],102.078
23,CC1(C)CC(=O)C=C(C(=O)Nc2cncc(OC3CCNCC3)n2)O1 [CBK038922T],99.3472
24,CC(C)(CO)CNc1nc(-c2cc(C(F)(F)F)cc(C(F)(F)F)c2)cnc1N [CBK063490],104.79
25,Cc1ccc(NC(=O)CN2C(=O)c3ccccc3C2=O)c(O)c1 [CBK270028],101.681
26,CC(NC(=O)N1CCSCC1)c1cccc(Br)c1 (stereo not shown) [CBK306475],57.8143
